In assay [1] the target is His6-ARD17 (residues 54–288) (murine) (UniProt Q80TN5). Kind of assay: pull-down; 75 μg His6-ARD17 on Ni2+-NTA-agarose with HEK293T lysates of EGFP-tagged proteins, 2 h at 4 °C; 20 mM Tris-HCl pH 8, 150 mM NaCl, 1% Triton X-100, 20 mM imidazole; washes 300 mM NaCl, 60 mM imidazole; GFP blot; only the target purified.
The target in assay [2] is zDHHC17-Cub-PLV (full-length murine zDHHC17 bait) (murine) (UniProt Q80TN5). Nature of the assay: two-hybrid; mating-based split ubiquitin system (SUS) in yeast: zDHHC-Cub-PLV baits, NubG-2HA-tagged preys; growth on synthetic defined medium (PLV-dependent activation of auxotrophy genes).
In assay [3] the target is T1, zDHHC13-Cub-PLV (full-length murine zDHHC13 bait) (murine) (UniProt Q9CWU2).
T1 sequence: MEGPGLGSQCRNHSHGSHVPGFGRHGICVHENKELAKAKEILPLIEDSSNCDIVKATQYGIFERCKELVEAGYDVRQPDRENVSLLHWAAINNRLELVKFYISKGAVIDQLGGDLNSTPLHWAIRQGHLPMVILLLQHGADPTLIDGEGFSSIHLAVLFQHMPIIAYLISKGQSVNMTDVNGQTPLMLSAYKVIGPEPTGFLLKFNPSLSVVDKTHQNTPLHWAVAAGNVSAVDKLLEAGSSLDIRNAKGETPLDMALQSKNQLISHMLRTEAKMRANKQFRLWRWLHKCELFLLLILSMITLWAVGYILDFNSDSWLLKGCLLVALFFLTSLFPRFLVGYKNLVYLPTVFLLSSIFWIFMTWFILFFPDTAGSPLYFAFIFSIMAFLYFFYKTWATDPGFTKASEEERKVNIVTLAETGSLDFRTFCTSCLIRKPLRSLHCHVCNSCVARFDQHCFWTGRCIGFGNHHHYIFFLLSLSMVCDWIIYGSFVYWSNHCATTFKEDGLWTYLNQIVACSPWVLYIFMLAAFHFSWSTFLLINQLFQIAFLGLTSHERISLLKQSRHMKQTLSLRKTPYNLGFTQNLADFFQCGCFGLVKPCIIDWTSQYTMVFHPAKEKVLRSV
Described as above.

Amino acid sequences for entries named in this document (tags omitted). A change or cut given only in a name is not applied to a line headed by its entry. Chains listed by the source or under a name are the forms on record and can include a tag or linker. Residues count along the entry.
UniProt Q80TN5: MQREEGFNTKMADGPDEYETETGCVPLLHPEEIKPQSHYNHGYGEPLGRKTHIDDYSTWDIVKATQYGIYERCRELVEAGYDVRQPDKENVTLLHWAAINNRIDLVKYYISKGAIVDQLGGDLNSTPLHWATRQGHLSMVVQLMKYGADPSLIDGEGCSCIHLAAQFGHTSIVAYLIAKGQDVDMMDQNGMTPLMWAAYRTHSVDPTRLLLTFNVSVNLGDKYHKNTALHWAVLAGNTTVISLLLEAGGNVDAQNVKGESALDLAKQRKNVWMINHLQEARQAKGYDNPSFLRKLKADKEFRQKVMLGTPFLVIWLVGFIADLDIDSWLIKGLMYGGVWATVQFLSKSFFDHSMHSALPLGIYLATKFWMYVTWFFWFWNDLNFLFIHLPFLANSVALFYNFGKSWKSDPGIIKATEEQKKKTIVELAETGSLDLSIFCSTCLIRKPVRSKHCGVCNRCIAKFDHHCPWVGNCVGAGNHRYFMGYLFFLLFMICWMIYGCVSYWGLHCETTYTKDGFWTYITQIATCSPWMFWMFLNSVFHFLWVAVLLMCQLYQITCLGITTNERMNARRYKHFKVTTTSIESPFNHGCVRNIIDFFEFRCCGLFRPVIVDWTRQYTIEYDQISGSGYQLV
His6-ARD17 (residues 54–288): residues 54-288 of Q80TN5
UniProt Q96JE9, residues 1-439: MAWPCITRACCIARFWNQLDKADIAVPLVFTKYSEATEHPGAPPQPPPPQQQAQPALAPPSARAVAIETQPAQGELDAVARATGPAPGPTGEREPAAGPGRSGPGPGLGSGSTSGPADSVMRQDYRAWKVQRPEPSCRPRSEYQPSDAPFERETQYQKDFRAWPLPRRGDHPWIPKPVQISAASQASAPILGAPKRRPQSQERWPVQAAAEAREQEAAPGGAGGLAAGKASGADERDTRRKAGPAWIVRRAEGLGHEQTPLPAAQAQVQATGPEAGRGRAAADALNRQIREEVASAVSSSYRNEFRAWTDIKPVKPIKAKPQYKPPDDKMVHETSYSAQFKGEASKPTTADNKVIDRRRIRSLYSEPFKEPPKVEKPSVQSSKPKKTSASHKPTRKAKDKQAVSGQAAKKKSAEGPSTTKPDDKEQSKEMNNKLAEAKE
NubG-2HA-tagged SNAP25b 1–120 (P60881, residues 1-120): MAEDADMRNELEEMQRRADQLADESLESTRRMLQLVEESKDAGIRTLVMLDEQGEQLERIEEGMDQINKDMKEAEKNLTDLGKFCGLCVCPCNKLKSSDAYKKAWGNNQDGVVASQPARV
NubG-2HA-tagged SNAP25b 1–115 (P60881, residues 1-115): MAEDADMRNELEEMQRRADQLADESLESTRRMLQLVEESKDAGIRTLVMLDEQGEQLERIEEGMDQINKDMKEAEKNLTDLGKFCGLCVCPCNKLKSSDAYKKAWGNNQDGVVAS
NubG-2HA-tagged SNAP25b 83–206 (P60881, residues 83-206): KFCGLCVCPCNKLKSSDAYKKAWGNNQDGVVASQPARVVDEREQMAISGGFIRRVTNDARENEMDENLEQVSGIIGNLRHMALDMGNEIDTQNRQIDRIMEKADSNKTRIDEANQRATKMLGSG
NubG-2HA-tagged SNAP25b 93–206 (P60881, residues 93-206): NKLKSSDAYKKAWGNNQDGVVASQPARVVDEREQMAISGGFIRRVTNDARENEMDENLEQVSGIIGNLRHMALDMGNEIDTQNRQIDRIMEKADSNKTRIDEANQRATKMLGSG
NubG-2HA-tagged SNAP25b 116–206 (P60881, residues 116-206): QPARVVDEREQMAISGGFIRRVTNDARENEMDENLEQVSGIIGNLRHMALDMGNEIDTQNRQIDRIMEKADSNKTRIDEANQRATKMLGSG
NubG-2HA-tagged SNAP25b P117A (P60881-1, form named): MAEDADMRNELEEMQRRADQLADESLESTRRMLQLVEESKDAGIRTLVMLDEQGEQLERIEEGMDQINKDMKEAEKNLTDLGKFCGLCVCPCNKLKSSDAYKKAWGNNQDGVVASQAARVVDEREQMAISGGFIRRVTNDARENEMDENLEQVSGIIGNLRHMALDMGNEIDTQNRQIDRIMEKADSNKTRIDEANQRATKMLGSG
NubG-2HA-tagged SNAP25b Pro^117 to isoleucine (P60881-1, form named): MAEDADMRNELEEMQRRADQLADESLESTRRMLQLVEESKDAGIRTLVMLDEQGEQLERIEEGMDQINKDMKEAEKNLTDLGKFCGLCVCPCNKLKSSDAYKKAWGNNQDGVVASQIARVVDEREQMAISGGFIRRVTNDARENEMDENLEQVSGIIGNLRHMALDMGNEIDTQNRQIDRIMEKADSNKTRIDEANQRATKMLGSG
NubG-2HA-tagged SNAP25b Pro^117 to valine (P60881-1, form named): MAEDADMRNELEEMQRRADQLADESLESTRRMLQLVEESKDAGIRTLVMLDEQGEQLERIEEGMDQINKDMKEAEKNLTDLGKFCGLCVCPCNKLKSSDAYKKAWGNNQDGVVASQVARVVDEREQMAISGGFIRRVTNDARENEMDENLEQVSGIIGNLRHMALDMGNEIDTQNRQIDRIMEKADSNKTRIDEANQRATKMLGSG
NubG-2HA-tagged SNAP25b Q116A (P60881-1, form named): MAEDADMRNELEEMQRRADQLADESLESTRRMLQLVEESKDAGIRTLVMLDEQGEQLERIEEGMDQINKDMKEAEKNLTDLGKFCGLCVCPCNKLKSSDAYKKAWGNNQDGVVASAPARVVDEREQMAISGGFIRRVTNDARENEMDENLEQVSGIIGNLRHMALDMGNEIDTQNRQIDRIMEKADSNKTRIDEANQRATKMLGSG
NubG-2HA-tagged SNAP25b V112A (P60881-1, form named): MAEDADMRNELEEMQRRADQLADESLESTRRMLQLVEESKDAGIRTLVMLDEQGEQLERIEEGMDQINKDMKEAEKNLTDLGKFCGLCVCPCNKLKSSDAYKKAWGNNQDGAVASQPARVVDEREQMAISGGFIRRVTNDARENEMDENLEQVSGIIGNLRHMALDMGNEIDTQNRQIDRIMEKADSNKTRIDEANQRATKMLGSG
NubG-2HA-tagged SNAP25b V113A (P60881-1, form named): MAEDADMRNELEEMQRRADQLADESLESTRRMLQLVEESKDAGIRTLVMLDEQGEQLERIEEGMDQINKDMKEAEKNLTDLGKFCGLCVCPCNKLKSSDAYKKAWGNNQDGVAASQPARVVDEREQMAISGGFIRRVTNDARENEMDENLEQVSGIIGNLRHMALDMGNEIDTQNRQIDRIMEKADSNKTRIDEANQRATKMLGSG
NubG-2HA-tagged HTT(1–550) (wild type) (P42858, residues 1-550): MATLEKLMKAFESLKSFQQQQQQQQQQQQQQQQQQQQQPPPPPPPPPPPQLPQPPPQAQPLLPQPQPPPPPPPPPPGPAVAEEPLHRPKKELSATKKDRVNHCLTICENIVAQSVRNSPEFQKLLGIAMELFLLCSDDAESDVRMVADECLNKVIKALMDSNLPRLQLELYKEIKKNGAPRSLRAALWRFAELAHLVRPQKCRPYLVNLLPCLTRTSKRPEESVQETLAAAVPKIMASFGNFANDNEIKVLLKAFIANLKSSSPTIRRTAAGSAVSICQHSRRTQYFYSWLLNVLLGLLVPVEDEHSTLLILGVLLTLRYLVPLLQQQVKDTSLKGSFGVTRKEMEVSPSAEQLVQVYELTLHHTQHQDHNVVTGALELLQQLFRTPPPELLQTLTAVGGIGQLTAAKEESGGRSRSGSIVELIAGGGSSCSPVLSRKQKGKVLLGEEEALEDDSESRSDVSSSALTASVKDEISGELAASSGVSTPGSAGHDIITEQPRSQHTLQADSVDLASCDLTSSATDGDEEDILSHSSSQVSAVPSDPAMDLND
NubG-2HA-tagged HTT(1–550) R500A (P42858, form named): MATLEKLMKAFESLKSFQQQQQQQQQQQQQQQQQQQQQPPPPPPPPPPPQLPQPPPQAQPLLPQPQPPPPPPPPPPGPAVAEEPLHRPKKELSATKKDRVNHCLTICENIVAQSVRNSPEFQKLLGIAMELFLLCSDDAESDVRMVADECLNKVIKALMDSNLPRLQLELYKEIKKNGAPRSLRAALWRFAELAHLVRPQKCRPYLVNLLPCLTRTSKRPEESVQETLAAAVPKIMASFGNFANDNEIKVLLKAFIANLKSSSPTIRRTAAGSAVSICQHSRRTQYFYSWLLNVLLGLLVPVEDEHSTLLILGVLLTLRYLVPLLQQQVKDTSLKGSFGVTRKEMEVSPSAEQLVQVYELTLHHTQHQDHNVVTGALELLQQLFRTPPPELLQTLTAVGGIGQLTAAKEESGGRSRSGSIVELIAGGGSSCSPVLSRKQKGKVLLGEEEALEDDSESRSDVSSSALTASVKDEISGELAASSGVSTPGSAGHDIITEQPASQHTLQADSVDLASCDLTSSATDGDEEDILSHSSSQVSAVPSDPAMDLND

The target in assay [4] is T2, zDHHC3-Cub-PLV (murine zDHHC3 bait) (murine) (UniProt Q8R173).
T2 sequence: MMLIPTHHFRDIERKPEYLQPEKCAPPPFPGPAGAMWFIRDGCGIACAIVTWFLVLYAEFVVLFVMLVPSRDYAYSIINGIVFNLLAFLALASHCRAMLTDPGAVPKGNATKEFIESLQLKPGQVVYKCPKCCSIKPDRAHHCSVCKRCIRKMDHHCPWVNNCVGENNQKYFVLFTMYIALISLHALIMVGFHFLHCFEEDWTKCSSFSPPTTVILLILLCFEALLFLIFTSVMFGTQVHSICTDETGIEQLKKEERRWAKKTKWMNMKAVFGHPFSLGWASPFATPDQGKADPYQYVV
Described as above.

No constants are given. Whether binding was seen depends on the method and setting. For part of these data: Binding seen in cells or lysates may run through a third protein. Some results given as binding are weak or reduced against the parent protein; the word gives no strength. Tags and fused reporters may be left off the sequences shown.

Turning to “EGFP-tagged E-STOP (wild type) (from UniProt Q96JE9-1 1-439) (domain or fragment)”, the binding entry in assay [1] was “binds”.
Still for that read-out and setting: with “EGFP-tagged SNAP25b (wild type) (from UniProt P60881-1 1-206)” the entry was “binds”.
On to “HTT(1–550) tested in the His6-ARD17 pulldown (from UniProt P42858 1-550) (domain or fragment)”, for which the binding entry in assay [1] is recorded as “no binding”.
Turning to “NubG-2HA-tagged HTT(1–550) (wild type) (from UniProt P42858 1-550) (domain or fragment)”, the binding entry in assay [2] and in assay [3] was “binds” each time.
In the case of “NubG-2HA-tagged HTT(1–550) R500A (from UniProt P42858 1-550) (domain or fragment)”, the binding entry in assay [2] and in assay [3] was “binds” each time.
Take “NubG-2HA-tagged SNAP25b 1–115 (from UniProt P60881-1 1-115) (domain or fragment)”: the binding entry in assay [2] and in assay [3] was “no binding” throughout.
For “NubG-2HA-tagged SNAP25b 1–120 (from UniProt P60881-1 1-120) (domain or fragment)”, the binding result in assay [2] and in assay [3] was “binds” each time.
For the molecule “NubG-2HA-tagged SNAP25b 83–206 (from UniProt P60881-1 83-206) (domain or fragment)”, the binding entry in assay [2] and in assay [3] was “binds” each time.
Take “NubG-2HA-tagged SNAP25b 93–206 (from UniProt P60881-1 93-206) (domain or fragment)”: the binding entry in assay [2] and in assay [3] was “binds” in each case.
Regarding “NubG-2HA-tagged SNAP25b 116–206 (from UniProt P60881-1 116-206) (domain or fragment)”, the binding entry in assay [2] and in assay [3] was “no binding” throughout.
As for “NubG-2HA-tagged SNAP25b (wild type) (from UniProt P60881-1 1-206)”, the values for the binding entry in assay [4], in assay [2] and in assay [3] were “binds weakly”, “binds” and “binds”, respectively.
As for “NubG-2HA-tagged SNAP25b P117A (from UniProt P60881-1 1-206)”, in assay [4], the binding result was “binds weakly”.
In the case of “NubG-2HA-tagged SNAP25b Pro^117 to isoleucine (from UniProt P60881-1 1-206)”, the binding result in assay [2] and in assay [3] was “binds” each time.
As for “NubG-2HA-tagged SNAP25b Pro^117 to valine (from UniProt P60881-1 1-206)”, the binding result in assay [2] and in assay [3] was “binds” each time.
Take “NubG-2HA-tagged SNAP25b Q116A (from UniProt P60881-1 1-206)”: the binding result in assay [4] is on record as “binds weakly”.
Take “NubG-2HA-tagged SNAP25b V112A (from UniProt P60881-1 1-206)”: the binding entry is listed as “binds weakly” in assay [4], “binds” in assay [2] and “binds” in assay [3].
As to “NubG-2HA-tagged SNAP25b V113A (from UniProt P60881-1 1-206)”, the binding entry in assay [4] was “binds weakly”.

B1: NubG-2HA-tagged CSPα (wild type) (protein, UniProt Q29455 1-198)
chain: MADQRQRSLSTSGESLYHVLGLDKNATSDDIKKSYRKLALKYHPDKNPDNPEAADKFKEINNAHAILTDATKRNIYDKYGSLGLYVAEQFGEENVNTYFVLSSWWAKALFIFCGLLTCCYCCCCLCCCFNCCCGKCKPKAPEGEETEFYVSPEDLEAQLQSDEREAADTPIVIQPASATETTQLTADSHPSYHTDGFN
For the molecule B1, the binding entry is on record as “binds weakly” in assay [4], “binds” in assay [2] and “binds” in assay [3].

B2: EGFP-tagged CSPα (wild type) (protein, UniProt Q29455 1-198)
chain: MADQRQRSLSTSGESLYHVLGLDKNATSDDIKKSYRKLALKYHPDKNPDNPEAADKFKEINNAHAILTDATKRNIYDKYGSLGLYVAEQFGEENVNTYFVLSSWWAKALFIFCGLLTCCYCCCCLCCCFNCCCGKCKPKAPEGEETEFYVSPEDLEAQLQSDEREAADTPIVIQPASATETTQLTADSHPSYHTDGFN
Turning to B2, the binding result in assay [1] is recorded as “binds”.

B3: NubG-2HA-tagged CSPα K137A (protein, UniProt Q29455 1-198)
chain: MADQRQRSLSTSGESLYHVLGLDKNATSDDIKKSYRKLALKYHPDKNPDNPEAADKFKEINNAHAILTDATKRNIYDKYGSLGLYVAEQFGEENVNTYFVLSSWWAKALFIFCGLLTCCYCCCCLCCCFNCCCGKCAPKAPEGEETEFYVSPEDLEAQLQSDEREAADTPIVIQPASATETTQLTADSHPSYHTDGFN
For the molecule B3, the binding result in assay [2] and in assay [3] was “binds” each time.

B4: EGFP-tagged CLIP3 (wild type) (protein, UniProt Q96DZ5 1-547)
chain: MTKTDPAPMAPPPRGEEEEEEEEDEPVPEAPSPTQERRQKPVVHPSAPAPLPKDYAFTFFDPNDPACQEILFDPQTTIPELFAIVRQWVPQVQHKIDVIGNEILRRGCHVNDRDGLTDMTLLHYACKAGAHGVGDPAAAVRLSQQLLALGADVTLRSRWTNMNALHYAAYFDVPDLVRVLLKGARPRVVNSTCSDFNHGSALHIAASSLCLGAAKCLLEHGANPALRNRKGQVPAEVVPDPMDMSLDKAEAALVAKELRTLLEEAVPLSCALPKVTLPNYDNVPGNLMLSALGLRLGDRVLLDGQKTGTLRFCGTTEFASGQWVGVELDEPEGKNDGSVGGVRYFICPPKQGLFASVSKISKAVDAPPSSVTSTPRTPRMDFSRVTGKGRREHKGKKKTPSSPSLGSLQQRDGAKAEVGDQVLVAGQKQGIVRFYGKTDFAPGYWYGIELDQPTGKHDGSVFGVRYFTCPPRHGVFAPASRIQRIGGSTDSPGDSVGAKKVHQVTMTQPKRTFTTVRTPKDIASENSISRLLFCCWFPWMLRAEMQS
In the case of B4, the binding entry in assay [1] was “binds”.

B5: NubG-2HA-tagged CLIP3 (wild type) (protein, UniProt Q96DZ5 1-547)
chain: MTKTDPAPMAPPPRGEEEEEEEEDEPVPEAPSPTQERRQKPVVHPSAPAPLPKDYAFTFFDPNDPACQEILFDPQTTIPELFAIVRQWVPQVQHKIDVIGNEILRRGCHVNDRDGLTDMTLLHYACKAGAHGVGDPAAAVRLSQQLLALGADVTLRSRWTNMNALHYAAYFDVPDLVRVLLKGARPRVVNSTCSDFNHGSALHIAASSLCLGAAKCLLEHGANPALRNRKGQVPAEVVPDPMDMSLDKAEAALVAKELRTLLEEAVPLSCALPKVTLPNYDNVPGNLMLSALGLRLGDRVLLDGQKTGTLRFCGTTEFASGQWVGVELDEPEGKNDGSVGGVRYFICPPKQGLFASVSKISKAVDAPPSSVTSTPRTPRMDFSRVTGKGRREHKGKKKTPSSPSLGSLQQRDGAKAEVGDQVLVAGQKQGIVRFYGKTDFAPGYWYGIELDQPTGKHDGSVFGVRYFTCPPRHGVFAPASRIQRIGGSTDSPGDSVGAKKVHQVTMTQPKRTFTTVRTPKDIASENSISRLLFCCWFPWMLRAEMQS
Regarding B5, the binding entry in assay [2] and in assay [3] was “binds” each time.

B6: EGFP-tagged SNAP23 (wild type) (protein, UniProt O09044 1-210)
chain: MDNLSPEEVQLRAHQVTDESLESTRRILGLAIESQDAGIKTITMLDEQGEQLNRIEEGMDQINKDMREAEKTLTELNKCCGLCICPCNRTKNFESGKNYKATWGDGGDNSPSNVVSKQPSRITNGQPQQTTGAASGGYIKRITNDAREDEMEENLTQVGSILGNLKNMALDMGNEIDAQNQQIQKITEKADTNKNRIDIANTRAKKLIDS
For the molecule B6, in assay [1], the binding result was “binds”.

B7: NubG-2HA-tagged SNAP23 (wild type) (protein, UniProt O09044 1-210)
chain: MDNLSPEEVQLRAHQVTDESLESTRRILGLAIESQDAGIKTITMLDEQGEQLNRIEEGMDQINKDMREAEKTLTELNKCCGLCICPCNRTKNFESGKNYKATWGDGGDNSPSNVVSKQPSRITNGQPQQTTGAASGGYIKRITNDAREDEMEENLTQVGSILGNLKNMALDMGNEIDAQNQQIQKITEKADTNKNRIDIANTRAKKLIDS
As to B7, the binding result in assay [2] and in assay [3] was “binds” throughout.

The values above are taken from publication PMC4571948, “Identification of a Novel Sequence Motif Recognized by the Ankyrin Repeat Domain of zDHHC17/13 S-Acyltransferases*” (The Journal of Biological Chemistry, 2015).
